In PMC4336329 (PLoS ONE, 2015):
Out of some 310,000 compounds screened, about 14,000 (4.5%) showed an effect of 50% or more. The effect is printed as a negative number. Some of the results follow.

molecular target: human ether-à-go-go-related gene (hERG) potassium channel (human, UniProt Q12809); test: primary screen, population patch clamp on CHO cells stably expressing hERG
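Further: peak tail current of the secondary pulse compared with the same well before compound.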

human ether-à-go-go-related gene (hERG) potassium channel, sequence (Q12809 whole entry, looked up): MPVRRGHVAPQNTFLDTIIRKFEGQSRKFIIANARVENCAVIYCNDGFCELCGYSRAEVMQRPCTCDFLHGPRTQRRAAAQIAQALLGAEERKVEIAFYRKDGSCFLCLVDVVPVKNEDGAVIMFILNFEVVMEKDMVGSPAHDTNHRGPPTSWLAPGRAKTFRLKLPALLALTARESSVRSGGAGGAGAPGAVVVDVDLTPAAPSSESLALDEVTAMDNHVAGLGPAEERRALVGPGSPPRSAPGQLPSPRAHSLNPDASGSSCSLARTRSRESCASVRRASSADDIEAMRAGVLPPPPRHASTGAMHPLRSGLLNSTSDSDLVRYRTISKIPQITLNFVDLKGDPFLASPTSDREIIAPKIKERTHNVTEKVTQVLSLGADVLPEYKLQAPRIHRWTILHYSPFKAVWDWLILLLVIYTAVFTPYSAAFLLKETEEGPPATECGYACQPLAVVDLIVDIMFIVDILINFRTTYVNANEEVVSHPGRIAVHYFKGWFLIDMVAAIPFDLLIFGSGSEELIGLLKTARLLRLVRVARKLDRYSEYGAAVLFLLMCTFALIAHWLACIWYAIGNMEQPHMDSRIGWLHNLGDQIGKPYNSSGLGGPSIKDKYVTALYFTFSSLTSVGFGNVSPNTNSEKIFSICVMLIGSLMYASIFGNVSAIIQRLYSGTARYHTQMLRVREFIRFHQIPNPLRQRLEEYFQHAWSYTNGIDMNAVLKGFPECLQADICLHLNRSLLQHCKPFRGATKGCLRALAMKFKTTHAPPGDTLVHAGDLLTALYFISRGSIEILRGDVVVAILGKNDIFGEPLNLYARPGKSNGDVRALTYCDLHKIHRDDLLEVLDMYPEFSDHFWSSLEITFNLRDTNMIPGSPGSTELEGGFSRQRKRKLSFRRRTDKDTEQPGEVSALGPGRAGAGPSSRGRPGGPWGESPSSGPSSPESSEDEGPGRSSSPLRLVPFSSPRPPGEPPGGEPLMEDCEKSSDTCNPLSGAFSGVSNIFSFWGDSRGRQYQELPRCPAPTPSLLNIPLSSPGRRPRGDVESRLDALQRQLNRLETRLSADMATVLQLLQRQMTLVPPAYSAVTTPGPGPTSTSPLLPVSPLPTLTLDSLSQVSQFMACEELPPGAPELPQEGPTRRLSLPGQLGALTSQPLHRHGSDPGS

Row | SMILES | hERG current change (%, negative = inhibition) at 10uM [%]
1 | O=C(CC1(O)C(=O)N(Cc2ccccc2)c2ccccc21)c1ccncc1 (stereo not shown) | 9.19
2 | CCN(CC)S(=O)(=O)c1ccc(N(C)CCc2ccc(OC)c(OC)c2)nc1 | -0.553
3 | COC(=O)CC1COc2ccccc2N1S(=O)(=O)c1ccc(OC)cc1 (stereo not shown) | -3.22
4 | Brc1ccc(-c2ncc(-c3ccccc3)cn2)cc1 | 12.8
5 | CC1(C)N=C(SCC(=O)Nc2ccc(Cl)cc2)C(c2ccc(Cl)cc2)=N1 | -0.481
6 | CCCOC(=O)c1c(-c2ccc(OC)cc2)oc2ccc(-c3ccc(OC)nc3)cc12 | 22.4
7 | COC(=O)c1sccc1NC(=S)N1C(C)CCCC1C (stereo not shown) | -7.4
8 | COc1ccc(-c2nnc(NC(=O)CSc3ccc(C)cc3)s2)cc1OC | -2.12
9 | CCOc1ccc(C2C(C(=O)O)c3ccccc3C(=O)N2CCN2CCOCC2)cc1 (stereo not shown) | 25.4
10 | O=C(c1ccccc1)c1c[nH]c2cc3c(cc2c1=O)OCCO3 | 0.662
11 | CN1C(=O)C(C)(C)c2cc(S(=O)(=O)NCC(=O)NCc3ccccc3)ccc21 | 7.72
12 | CCOC(=O)C1CCN(C(=O)CCCn2c(=O)c3cccn3c3cccnc32)CC1 | -50
13 | CO/N=C/C(c1ncc(C(F)(F)F)cc1Cl)S(=O)(=O)c1ccccc1 (stereo not shown) | 5.89
14 | CC(C)C(NC(=O)c1ccc(F)cc1)C(=O)N1CCC1 (stereo not shown) | 9.27
15 | COc1ccc(OC)c(NC(=O)CN2C(=O)NC3(CCOc4ccccc43)C2=O)c1 (stereo not shown) | -2.22
16 | CCCCS(=O)(=O)C1CCS(=O)(=O)C1 (stereo not shown) | 2.16
17 | CN(Cc1ccc(OC(F)F)cc1)Cc1nc2c(Br)cc(Br)cc2c(=O)[nH]1 | -5.29
18 | N/C(=N\OC(=O)c1ccc(Cl)cc1)c1cccnc1 | -17.7
19 | CN(CC(=O)N1CCc2ccccc2C1)S(=O)(=O)c1ccc2c(c1)c(=O)n(C)c(=O)n2C | -15.6
20 | Cl.O=C(Cn1c(NCCCO)nc2ccccc21)c1ccc(Cl)cc1Cl | -43.9
21 | CC1(C)Cc2c(sc(NC(=O)C(=O)N3CCOCC3)c2C(N)=O)CO1 | 10.2
22 | CC(C)(C)N1C(=O)Cc2c1nc(N)c1c(N)nc(N3CCCCC3CO)c(C#N)c21 (stereo not shown) | -24.3

Row | SMILES | hERG current change (%, negative = inhibition) at 10uM [%]
23 | CCCCn1c(=O)n(C)c(=O)c2c(C(F)(F)F)cc(-c3ccncc3)nc21 | -28
24 | CCCCn1c(N)c(N(Cc2ccccc2OC)C(=O)c2c(CC)noc2C)c(=O)[nH]c1=O | 10.6
25 | Cc1ccc(S(=O)(=O)NC(=O)NC(=O)N(C)S(=O)(=O)c2ccc(C)cc2)cc1 | 12.7
26 | c1ccc(Nc2nc3ccccc3s2)cc1 | 15.7
27 | Cl.OC(COCC1COc2ccccc2O1)CN1CCN(c2ccccc2)CC1 (stereo not shown) | -64.1
28 | CC(C)c1ccc2[nH]c(O)c(N=NC(=O)c3cccc(S(=O)(=O)Nc4cccc(Cl)c4)c3)c2c1 | 5.55
29 | Cc1ccc(Nc2ccc(C(=O)NC3CCCCC3)cn2)cc1 | 7.98
30 | O=C(NCc1ccccc1)c1nnc(CS(=O)(=O)c2ccccc2)o1 | -9.74
31 | COCCNC(=S)NC1CC2CCCC(C1)N2Cc1ccco1 (stereo not shown) | -12.6
32 | Cc1ccc(-n2ncc3c(=O)n(CC(=O)N4CCN(c5ccccc5F)CC4)cnc32)cc1C | 18
33 | O=C(NC1CCN(Cc2ccc(Cl)cc2)CC1)c1cn(-c2ccccc2)nc1-c1cccnc1 | -75.1
34 | O=C(Cc1ccc(F)cc1)N1CCC(CC2CC(c3ccc(Cl)cc3)=NO2)(C(=O)NCC2CCCCC2)CC1 (stereo not shown) | -72.3
35 | O=C(O)c1ccccc1SCc1nc2ccccn2c1Br | 16.1
36 | CCCCOC(=O)Nc1cccc(C(C)=O)c1 | -6.02
37 | CN(C)C(=O)N(CCCN1CCOCC1)Cc1cccc2ccccc12 | 5.1
38 | Cn1nnnc1SCC(=O)NC1CCCCC1 | 7.6
39 | O=C(C[n+]1ccncc1)c1ccccc1.[Br-] | 13
40 | CNc1cc(Cl)nc(SC)n1 | 20.6
41 | CC/C=C/C(=O)N1CC2(CC(c3cccc(NC(=O)c4ccccc4)c3)=NO2)C[C@@H]1C(N)=O (stereo partly shown) | 8.65
42 | CC1CCCCN1C(=O)COc1ccc(NC(=O)c2ccco2)cc1 (stereo not shown) | 2.31
43 | C=CCN=C(NC#N)SC | 20.8
44 | COc1nc(OC)nc(N(C)CCO)n1 | 5.64

Row | SMILES | hERG current change (%, negative = inhibition) at 10uM [%]
45 | Cn1c(=O)c2c(ncn2CC(=O)OCc2ccccc2)n(C)c1=O | -6.21
46 | COc1nc(Nc2ccc(OC)c(Cl)c2)nc(OC)n1 | 9.14
47 | Cc1ccc(C)n1-c1ccc(C#N)cn1 | 3.89
48 | CCCCCC(=O)NNC(=O)c1ccc(-c2ccccc2)cc1 | 3.38
49 | Nc1nnc(SCC(=O)Nc2ccc(N3CCOCC3)cc2)s1 | -3.83
50 | CN(C)/N=C/c1cn(-c2ccccc2)nc1-c1cccnc1 | -15.9
51 | C=CCC(c1ccccc1)N(C(C)=O)c1ccco1 (stereo not shown) | 7.57
52 | COc1ccccc1CN1CCNC(=O)C1CC(=O)NCc1csc(C)n1 (stereo not shown) | 12.1
53 | COC(=O)c1ccc(NC(=O)CCc2nnc3ccc(NCc4ccco4)nn23)cc1 | 18.4
54 | COc1ccc(/C=C2/Sc3ccc(C(=O)NCCN4CCCCCC4)cc3NC2=O)cc1 | 1.31
55 | CC(/C=N\NC(=O)c1cc(C)oc1C)=C\c1ccccc1 | 19.5
56 | COc1ccc(OCc2cc(C(=O)N(Cc3nccn3C)C(C)C)no2)c2ccccc12 | -43.7
57 | O=C(CN1CCN(c2ccccc2O)CC1)NCCCc1ccccc1 | -2.06
58 | Cn1nc(C(F)(F)F)c2cc(C(=O)NC3CC3)sc21 | 6.25
59 | CCOc1ccc(C2C(C(=O)Nc3ccccc3)=C(C)N=c3s/c(=C/c4cccc(OCC(=O)O)c4)c(=O)n32)cc1 (stereo not shown) | 0.647
60 | CC(C)(C)c1ccc(O)c(CN2CCN(c3ccccc3)CC2)c1 | 13.6
61 | O=C1c2ccccc2NC(c2ccc(O)cc2)N1Cc1ccco1 (stereo not shown) | -24.3
62 | COCCN(Cc1cc2ccc(C)c(C)c2nc1Cl)C(=O)N1CCOCC1 | -11
63 | CN(Cc1ccccc1)C(=O)CNC(=O)C12CC3CC(CC(C3)C1)C2 | -16.3
64 | NS(=O)(=O)c1ccc(CCNC(=O)/C=C/c2cccc([N+](=O)[O-])c2)cc1 | -13.7
65 | CCOC(=O)C1=C(C)NC(=O)NC1c1ccc(OCC(N)=O)cc1 (stereo not shown) | -0.605
66 | CC1(CCc2ccccc2)NC(=O)N(CC(=O)N2CCCCCC2)C1=O (stereo not shown) | -2.67

Row | SMILES | hERG current change (%, negative = inhibition) at 10uM [%]
67 | CS(=O)(=O)c1ccc(Cl)c(NC(=O)COC(=O)c2ncc(Cl)c(Cl)c2Cl)c1 | -21.3
68 | CN(Cc1ccnc2ccccc12)C(=O)C1CCC(=O)N(Cc2ccccc2F)C1 (stereo not shown) | -43.1
69 | O=C1C[C@@H](c2ccc(O)cc2)Oc2cc(O)cc(O)c21 | -2.14
70 | CCn1cc(C(=O)NCCO)c(=O)c2cc(F)c(N3CCN(C)CC3)cc21.Cl | 1.03
71 | COC(=O)Cc1ccc(OCC(=O)Nc2ccc(OC(F)(F)F)cc2)cc1 | -0.104
72 | COc1ccc(C2=NN(C(=O)CSc3nc(=O)n4cccc(C)c4n3)C(c3ccc(C)cc3)C2)cc1 (stereo not shown) | 4.53
73 | Cc1ccc2cccc(N=Cc3c(C)[nH]n(-c4ccccc4)c3=O)c2n1 | 5.75
74 | Cc1ccc(N2C(=O)[C@@H]3[C@H](C2=O)[C@H]2C=C(C(=O)c4ccccc4)C=CN2[C@@H]3C(=O)c2ccc(Cl)cc2)cc1 | 11.2
75 | O=C(Nc1ccccc1)c1ccccc1NC(=O)C1CCCCC1 | 8.74
76 | O=C(O)c1cc2cc(Cl)ccc2oc1=O | 1.71
77 | COC(=O)Nc1ncc(CN2CCc3ccccc3C2)s1 | -43
78 | Cc1c(Cl)c([N+](=O)[O-])nn1CC(=O)NC(C)C1CC2CCC1C2 (stereo not shown) | -12.9
79 | O=C(Nc1ccccc1)C1CC(=O)n2c(nc3ccccc32)N1 (stereo not shown) | 2.29
80 | COc1ccc(/C=N/NC(=S)Nc2ccccc2)cc1COc1ccccc1F | -1.62
81 | COc1cc(Cl)c(C)cc1NC(=O)CNC(=O)Cn1cnc2ccccc2c1=O | -4.59
82 | CC(C)(C)NC(=S)NC(=O)C12CC3CCC(CC(C3)C1)C2 | 11.5
83 | COc1ccccc1NC(=O)c1ccc(NC(=O)c2nc3nccc(C)n3n2)cc1 | -6.83
84 | Nn1cnnc1SCC(=O)Nc1ccc2c(c1)OCO2 | 2.24
85 | CCCC(=O)Nc1ccc(-c2cnc(-c3ccc(NC(=O)CCC)cc3)nc2)cc1 | 7.97
86 | CCOc1ccc(C(C)=O)cc1CN1c2ccc(S(N)(=O)=O)cc2CC1C (stereo not shown) | 17.9
87 | O=C(CSc1nnc(-c2ccccc2)o1)Nn1cnnc1 | -2.82
88 | CCOC(=O)c1cnc2c(-c3ccccc3)cnn2c1N | 9.38
